Reference: the supplement of paper PMC12632987
In all, about 1,800 sequences were measured (“median log2 fold change of GCK-ALFA target abundance (FLAG IP / Myc IP barcode read proportion)”: median about 0.14, lowest 2% from about -0.84 on). Some of the results follow.

T1: TRAF2, Q12933
T1 chain: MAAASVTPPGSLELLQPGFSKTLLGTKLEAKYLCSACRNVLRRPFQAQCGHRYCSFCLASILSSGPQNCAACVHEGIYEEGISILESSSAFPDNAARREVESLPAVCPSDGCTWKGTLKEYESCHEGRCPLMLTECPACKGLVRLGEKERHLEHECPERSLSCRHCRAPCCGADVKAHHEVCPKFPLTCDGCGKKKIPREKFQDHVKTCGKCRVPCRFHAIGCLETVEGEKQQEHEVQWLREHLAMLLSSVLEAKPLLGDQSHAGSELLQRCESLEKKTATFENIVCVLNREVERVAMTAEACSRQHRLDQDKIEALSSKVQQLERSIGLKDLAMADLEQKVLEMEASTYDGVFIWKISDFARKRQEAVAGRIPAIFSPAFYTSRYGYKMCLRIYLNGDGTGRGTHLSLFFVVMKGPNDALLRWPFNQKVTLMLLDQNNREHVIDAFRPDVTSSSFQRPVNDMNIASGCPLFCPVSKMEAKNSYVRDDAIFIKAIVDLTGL

B1: traf2_out_11_104_633 (protein)
chain: LTREQAREFNDFAMAKEDEARAVAAALAAALAAAGETEAAARLNAALAHPGAGISTFRNLIEDLLPTLSPEAAAQARAAIERLEALQKEVSKKLNELEKK
B2: traf2_out_17_178_1734 (protein)
chain: SKEEILKEISELADELLDVTRKAMEELKAILEKEGVLTPELRARLDEVAKTGNLYAFEEVADEAIALSSKKEEVTALKEETVAKMRELNKKIQEAVEKLE
B3: traf2_out_15_180_1330 (protein)
chain: MTEEELKRRIALASEAADRVQDHLAALLAAHPELTPEERAALRALARSVLTLYWNGEWEEAEAAVAAFEARVDPRTAAVARELAAFTREVVEAAKAELAA
B4: traf2_out_17_178_1666 (protein)
chain: TKEEKRKEISEATDKLIDLAEEAAARLLEIARREGFWSPEELAEIEAARRRGSASMVRALMERAIPKSPSAAELAALLAEFDAKVRELSKKIAEAYEKYE
B5: traf2_out_18_3_1939 (protein)
chain: KEEELKKVSEEIDKIIDEVTKKAKESLKELKKEHPEFKERAEKLEKDLEAGAGPFGILEELAELYKEAGDEKKAKEIEEFLKKKKKELQKLVDEYEKLRK
B6: traf2_out_17_162_1618 (protein)
chain: MSIEEKLEEFKKLLEELRKEKEELEEKLKNIEKLSKEELTDLLVEASEARRKALEAIEELKKLKDEIPEEEYEKLVKEFEELAEKFQEIANKFYKELEKK
B7: traf2_out_8_174_2565 (protein)
chain: GELENLKKAANVGLEFEKKIEELKKEIEELRKKSLEEALKYAEEKGKELKEELEKKKEEAKKTESPETQKLIERELNSAKQRVDNLIEGLKLRVAAEKAA
B8: traf2_out_19_16_1970 (protein)
chain: SEEELRRLRERLERIERRVEELEEYFEKNRETLTREEVSDLLVEASELKREAQRIREELEERTDWDPEEVGRLRERAERVEERAQRLMNKLVEKYLELLK
B9: traf2_out_12_187_964 (protein)
chain: SVEEELRRAAEEGVRRARRALERAAPEDPRFRELLEKLERLEELYREDPSIASDVLVAASAILRAVRLHEAGAPAEEIDAAVEEADRILDEALAEAEARR
B10: traf2_out_20_3_2131 (protein)
chain: EELEKKLEEELEKAIKLLKEAAKLADKETAKKLEELIKRLKESRSLPYEDRLVVLSEIRREVLRLAEKARKEGKEELAKVLEEAAEALNKAMNLLMKIIE
B11: traf2_out_6_3_2511 (protein)
chain: EEEEERRRNEEALREAAEMSLETIKRAADHGLKELKKAVEDPNATESDFLAYASAINTLIRIAEEHAKLHPEEKAEAEAWIKEVKAELAKLEAEWKKKTA
B12: traf2_out_18_54_1951 (protein)
chain: AELEALKAEAREVIDAWTAAVTALVADDPALQAAVAAMRAEVLAALDTEGIWAAVTTFRRGSAALVAAIADPAVADAVGDLAADARNRLAKLAIRAEEAE
B13: traf2_out_6_156_2382 (protein)
chain: DIEKILEEAKKKIEELIKKLSKAPESKKIRYINEIAGTVYRALQKLRDLGASLEELKEFTEEIKKFVEEQLEKYGLDESTKNLILSSINAVGEVALREAA
B14: traf2_out_15_48_1341 (protein)
chain: SVEELRAVASEIADEIDAAKDAVAAELEALRPSAAPEQRAPLAEAIDAARHGRGQNTVLALLDRLEPLLAPEQAARVAALRDRLRAVVRAASARMAEVLK
B15: traf2_out_18_167_1889 (protein)
chain: EEEIRKKIEEYTDKLVELSEIRRALLLILEKLKKDREEALKLIEEALKKFPNSEVIKEVYEASKTLSDEELAKLLEEKAEELQKEANEAYKKREEALKEL
B16: traf2_out_15_48_1364 (protein)
chain: DPEKLREVYREVADRQIAKADEVAARLEELLPKASPEVKPLIEALIEAARRGAGLSDIAARLKEIAEKADPELKKKLLELREEVERVRREASRRISEVEK
B17: traf2_out_5_192_2335 (protein)
chain: SMEEEEELEEFLEEARKRLTEGVEKLAEESDKISEEELTIRLQHLVLTELNRAKTLEEKEAVVELAEEILSSEPKISPETVEGVVNTARQVIAAEAAVDA
B18: traf2_out_1_158_904 (protein)
chain: STDVSTLHAVATSTLDVYAENAKERGLEKAAALFEQLKADVEKLYEENKDASLEEFAAKVLALLDEYAKKSESLPPEERELVDIAIRQIRSGVLQVVKLA
B19: traf2_out_8_144_2539 (protein)
chain: MMTKREIANRLANILVELDELIEEADPETKEVLIKARRHVGQALNLVVFGGPKEEILKEIEEAIKYLKEAIKLVADNPELKERVEKALEELKKIKKEIKK
B20: traf2_out_11_169_882 (protein)
chain: EEKEKNRKFNDFALELNDKAKKELLAFAEELAKKLGLDVAEVKAIFEANKNSSLSALAAALIEYFRSKGHEDAAAAVLAKYEELQEKINKEGTKKLKELE
B21: traf2_out_12_50_980 (protein)
chain: SEEEEEEEENERIRELADEAIARADELVAATGGDPAAAFAALRAEAEADPSQARFLRTVARTLQRLFLSRGADPATVGALASALLDHLDEIIEAAEPPEP
B22: traf2_out_18_3_1927 (protein)
chain: SAEELKEVSEKIDEIIDEAREKAREALDRIRARHPEKAAEVDRLEALLDAGAGPFGILEELAELARELGDEELAKELEEFLKEKRKELSELVEEYLKLRK
B23: traf2_out_20_3_2125 (protein)
chain: EELEKELEKELERALKLLKEAAKKSDPETAAKLEKLIKRLKASRELSPSDRLVVVSEVRREVRALAEAARAAGKEELAAILEEAAEELNKAAGLLLKIEE
B24: traf2_out_20_3_2188 (protein)
chain: SELEKQLQEELDRALKLIDEAAKLADPETAARLEALRDRLIASRTLSYEDRLVTLSEIRRELLRLAEQARAEGKEELAKVLEEAADAINRAMNLVYKIIE
B25: traf2_out_16_104_1392 (protein)
chain: EEARRAELERIAARLREIAERAGRIANRLYELYLKASPEEKEKLSDALVEASELRREALLAAQEVEEALRTGGDLAEARRRLEELEERLEEIERRYEELE
B26: traf2_out_17_162_1553 (protein)
chain: AELEKEWEELKKELEELRKKLEEFEKKLEELESMSKEELTDLLVEVSEARRRARQLAERLKELKPLIGEEEAGKLREEAEKIAEELQRIANKIYEELLKK
B27: traf2_out_17_162_1602 (protein)
chain: SELEKFIERIEERLERLEEEARRLEEKLKRIEELSKEELSDLLVEASEARREARELIEELEKHKEELPEELYKRLLERAEEIAERFQRLANEIYKELEKK
B28: traf2_out_11_169_881 (protein)
chain: EEKEKNRKFNDFALELNDKAKEELLKFSLELAKELGLDVEEVKKIYEENKNKSLSYLASKLIEYFKSKGHEEAAKKVLEKYEKLQDEINKEGTKKLKELE
B29: traf2_out_15_17_1310 (protein)
chain: SAEAALNEALRKATNEVLDEAEKLLEELVAEARKEAEKDGTLEELNKLIEESKDYSVISQIQILAQWAKEKGFTELAKRLEEAAEEMRKRFSDAAKAVEA

Target: T1, TRAF2, Q12933
Experiment: median log2 fold change of GCK-ALFA target abundance (FLAG IP / Myc IP barcode read proportion) (log2 ratio); each designed protein is fused to an ALFA-tag nanobody in HEK293 cells to bring the named protein to FLAG-tagged glucokinase (GCK); Myc marks an untargeted standard; higher = target protein stabilised (more abundant)
Details: target protein: 3xFLAG-MCP-GCK-ALFA reporter; HEK293 landing pad (RPLP)
In short: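 Sequencing of reverse-transcribed, amplified circular RNA barcodes from anti-FLAG and anti-Myc immunoprecipitates provided the readout for an ALFA-nanobody-fused binder library recombined into HEK293 landing-pad cells. Those cells were induced with 2 μg mL^−1 doxycycline, transfected with a plasmid expressing a FLAG-tagged target and a Myc-tagged standard, and lysed after 48 h. Target abundance is the per-binder median log2 ratio of FLAG to Myc barcode read proportions. Only barcodes at a proportion of ≥10^−7 in both replicates and binders with ≥3 barcodes per replicate were kept, with a 10^−6 pseudocount added before the two replicates were pooled.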

Binder	median log2 fold change
B1	0.281
B2	0.411
B3	0.153
B4	0.000244
B5	0.169
B6	0.0164
B7	0.224
B8	0.0168
B9	0.0885
B10	0.0668
B11	-0.0468
B12	0.229
B13	0.0808
B14	0.194
B15	0.301
B16	0.354
B17	0.359
B18	0.194
B19	0.00428
B20	0.444
B21	0.282
B22	-0.0729
B23	0.112
B24	-0.157
B25	0.229
B26	0.225
B27	0.6
B28	0.301
B29	0.168
